# Reference: PMC4336329 (PLoS ONE, 2015)
# Among all 310,000 compounds or so, about 2,200 (0.71%) showed an effect of 50% or more. Effects have a minus sign here. Some of the results follow.
# Target: human ether-à-go-go-related gene (hERG) potassium channel (human, UniProt Q12809)
# Test: primary screen, population patch clamp on CHO cells stably expressing hERG
# Chain of human ether-à-go-go-related gene (hERG) potassium channel (Q12809 whole entry, looked up): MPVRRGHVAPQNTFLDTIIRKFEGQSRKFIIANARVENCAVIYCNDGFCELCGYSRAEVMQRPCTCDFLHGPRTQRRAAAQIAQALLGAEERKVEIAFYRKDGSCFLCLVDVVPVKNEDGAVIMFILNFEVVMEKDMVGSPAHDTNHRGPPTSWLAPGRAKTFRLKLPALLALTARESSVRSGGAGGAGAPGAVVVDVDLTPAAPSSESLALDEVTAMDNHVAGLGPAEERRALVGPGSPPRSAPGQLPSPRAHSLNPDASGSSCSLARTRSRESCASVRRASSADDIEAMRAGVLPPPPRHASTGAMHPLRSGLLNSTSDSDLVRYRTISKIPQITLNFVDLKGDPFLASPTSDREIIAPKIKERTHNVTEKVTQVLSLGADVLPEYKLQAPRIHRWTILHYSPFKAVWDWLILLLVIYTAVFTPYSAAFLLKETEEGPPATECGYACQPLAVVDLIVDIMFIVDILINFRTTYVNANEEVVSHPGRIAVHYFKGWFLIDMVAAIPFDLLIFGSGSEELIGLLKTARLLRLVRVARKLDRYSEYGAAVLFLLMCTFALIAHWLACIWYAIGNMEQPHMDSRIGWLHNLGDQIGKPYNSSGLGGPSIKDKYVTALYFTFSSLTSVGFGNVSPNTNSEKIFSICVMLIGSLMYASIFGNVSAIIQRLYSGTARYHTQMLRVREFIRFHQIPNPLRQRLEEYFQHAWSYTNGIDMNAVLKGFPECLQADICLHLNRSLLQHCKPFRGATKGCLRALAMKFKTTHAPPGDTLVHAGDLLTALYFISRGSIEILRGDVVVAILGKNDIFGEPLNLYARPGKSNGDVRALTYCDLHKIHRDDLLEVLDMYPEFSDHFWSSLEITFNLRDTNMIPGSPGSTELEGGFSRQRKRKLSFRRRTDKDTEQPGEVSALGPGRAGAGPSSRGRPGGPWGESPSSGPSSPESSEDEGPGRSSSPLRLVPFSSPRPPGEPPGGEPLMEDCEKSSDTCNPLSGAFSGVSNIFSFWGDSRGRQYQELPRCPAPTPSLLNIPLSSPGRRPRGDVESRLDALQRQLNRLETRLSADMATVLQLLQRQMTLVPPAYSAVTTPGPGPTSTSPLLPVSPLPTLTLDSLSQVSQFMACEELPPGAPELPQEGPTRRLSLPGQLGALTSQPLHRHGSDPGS
row,SMILES,"hERG current change (%, negative = inhibition) at 1uM"
1,CN(C)CCNC(=O)c1cc2cc(Br)ccc2oc1=O,6.58%
2,CCOC(=O)C1=NN(C(=O)Nc2cccc(C(F)(F)F)c2)C2C(=O)N(c3cccc(C(F)(F)F)c3)C(=O)C12 (stereo not shown),10%
3,Cc1cccc(-n2c(SCc3cc(=O)n4ccsc4n3)nc3ccccc3c2=O)c1,13.2%
4,COc1ccc(S(=O)(=O)N2CCCCCC2)cc1NC(=O)Cc1ccccc1F,-7.9%
5,COCC(C)NC(=O)c1cc(-c2ccc(OC)c(OC)c2)on1 (stereo not shown),5.77%
6,Cc1ccc(NC(=O)COC(=O)CSC(=S)N2CCOCC2)cc1,16.6%
7,C/C(=N\N=C(N)N)c1cc(Cl)ccc1Cl.CC(=O)O,7.3%
8,Cc1c(Br)c(=O)oc2c(C)c(O)ccc12,9.33%
9,O=C(COc1ccccc1)NC1CCCCCCC1,-3.06%
10,CCCCOC(=O)C[N+](C)(C)CCOC1CC2CCC1(C)C2(C)C.[Br-] (stereo not shown),-4.93%
11,CS(=O)(=O)N(Cc1ccc(C(=O)NCc2ccco2)cc1)c1ccccc1,2.71%
12,COc1ccc(/C=N/n2c(-c3ccc(C)cc3)n[nH]c2=S)cc1OC,13.6%
13,CCN(CC)P(=O)(/C(Cl)=C\Nc1c(C)n(C)n(-c2ccccc2)c1=O)N(CC)CC,-5.86%
14,CCc1ccc(-n2c(Cn3nc(C(F)(F)F)cc3C)n[nH]c2=S)cc1,9.52%
15,Cc1ccc(-c2noc(CCCc3ccccc3)n2)cc1,9.6%
16,CC(=O)c1ccc(N(CC(=O)NC2CCCC2)C(=O)CCC(=O)Nc2cc(C)on2)cc1,12.7%
17,Cn1c(NCc2ccco2)nc2c1c(=O)n(Cc1ccc(Cl)cc1)c(=O)n2C,6.31%
18,Cc1sc2cc3c(c(C(=O)c4ccccc4)[n+]2c1C)-c1cccc2cccc-3c12.[Br-],-47.2%
19,Cc1ccc(CNC(=O)COC(=O)c2c(C)noc2C)cc1,12.5%
20,O=C(c1ccc(COc2ccccc2Cl)o1)N1CCN(c2ccccc2)CC1,6.6%
21,O=C(CSc1nnc(-c2ccc(F)cc2)c2ccccc12)Nc1ccccc1Cl,15.2%
22,O=C(Nc1nc2c(s1)CN(Cc1ccccc1)CC2)c1cccc(S(=O)(=O)N2CCc3ccccc32)c1,11.5%
23,Cn1c(=O)n(C)c2cc([N+](=O)[O-])c(N3CCN(C(=O)C(C)(C)C)CC3)cc21,11.3%

row,SMILES,"hERG current change (%, negative = inhibition) at 1uM"
1,Clc1ccc(N2CCN(c3nc4nonc4nc3N3CCSCC3)CC2)nc1,-0.32%
2,COc1ccc(-n2nc(N)c3c(=O)oc(N(C)C)nc32)cc1,9.61%
3,CCCOc1ccc2cc(-c3ccccn3)c(=O)oc2c1,-7.01%
4,CCOc1[nH]n(-c2ccccc2)c(=O)c1C=Nc1ccccc1,2.99%
5,CCOCCCn1c(=N)c(C(=O)NCCN2CCOCC2)cc2c(=O)n3cccc(C)c3nc21,-17%
6,CC1=NN(C(=O)c2csc(C(C)C)c2)C(O)(C(F)(F)F)C1 (stereo not shown),7.09%
7,Cc1cccc(C(=O)NNC(=O)C2CCCO2)c1 (stereo not shown),-4.43%
8,Cc1ccnc(NC(=O)c2ccc(Cl)cc2Cl)n1,5.53%
9,O=C(c1ccc(Cl)cc1)N(Cc1ccccc1F)N1C(=O)CCCC1=O,11.4%
10,O=C(N/N=C/C=C/c1ccco1)c1cccc([N+](=O)[O-])c1,-0.965%
11,Cc1cccc(NS(=O)(=O)c2csc(C(N)=O)c2)c1C,13.2%
12,Cc1[nH]c(=O)[nH]c(=O)c1S(=O)(=O)Nc1ccc(Br)cc1F,13.7%
13,O=C(O)CCCNC(=O)CCCNC(=O)C(c1ccccc1)c1ccccc1,27.1%
14,CCc1ccccc1NC(=S)N1N=CCC1c1ccccc1 (stereo not shown),7.45%
15,O=C(Nc1ccc(Cl)c(S(=O)(=O)N2CCOCC2)c1)[C@@H]1CCCN1C(=O)c1cccs1,2.27%
16,CC(C)OC(=O)Cc1ccccc1,10.3%
17,COCCSc1nnc(NC(=O)c2ccc(OC)c([N+](=O)[O-])c2)s1,12.6%
18,COc1ccc2oc(C(=O)N(C)Cc3ccc(OC(F)F)cc3)c(C)c2c1,11.3%
19,COC(=O)Cn1cnc2c(nnn2Cc2ccc(Cl)cc2)c1=O,4.47%
20,CCCCNc1cc(=O)oc2ccccc12,7.81%
21,CNc1c(NS(=O)(=O)c2ccc(F)cc2)c(=O)oc2ccccc12,17%
22,CC(C)c1ccc(NC(=O)Nc2cnccn2)cc1,-5.78%
23,O=C(CSc1nnc(-c2ccco2)o1)N1CCN(c2ccccc2)CC1,14.7%

row,SMILES,"hERG current change (%, negative = inhibition) at 1uM"
1,Cc1nn(C)c2ncc(C(=O)c3cc(F)ccc3O)cc12,5.37%
2,O=C1CC(c2ccccc2)=NN1c1ccc([N+](=O)[O-])cc1,9.9%
3,CCCc1cc(=O)n2[nH]c(-c3ccc(Cl)cc3)cc2n1,6.58%
4,O=C(c1cccs1)N(Cc1cc2ccccc2[nH]c1=O)CC1CCCO1 (stereo not shown),9.25%
5,COc1cccc(N2CC(O)=C(c3nc4ccccc4c(=O)[nH]3)C2=N)c1,6.93%
6,COc1ccc(OC)c2c1nc1n2CCS1,4.74%
7,CCc1nnc(NC(=O)c2c(C)nn(-c3ccccc3)c2Cl)s1,13.1%
8,COc1cc(C(=O)NC(=S)NNC(=O)[C@H]2C[C@@H]2c2ccccc2)cc(OC)c1OC,11.6%
9,Cc1c(-c2nc(-c3ccc(C(C)(C)C)cc3)no2)n(C)oc1=O,11.7%
10,O=c1c2ccccc2nc(-c2ccco2)n1-c1nccs1,2.4%
11,Clc1ccc(/C=N/Nc2nc(Cl)nc3ccccc23)cc1,9.9%
12,COc1cc(OC)c(NC(=S)Nc2cccc(C)c2)cc1Cl,6.01%
13,Cc1noc(/C=C/N(C)C)c1S(=O)(=O)N1CCC(C(=O)O)CC1,19.9%
14,COc1cccc(-c2nn(-c3ccccc3)cc2CN(C)C(C)c2ccncn2)c1 (stereo not shown),10.6%
15,COc1ccc2oc(=N)c(C(=O)Nc3ccc(Br)cc3)cc2c1,13.9%
16,O=C(c1cc(=O)c2cc(Cl)ccc2o1)N1CCN(Cc2ccccc2)CC1,-42.1%
17,O=C(CNC(=S)N(Cc1ccccc1)Cc1cccnc1)NC1CCCCC1,10.7%
18,Cc1nnc(SCc2ccccc2)[nH]c1=O,4.62%
19,Cn1nccc1NC(=O)NC(=O)c1c(Cl)cccc1Cl,8.82%
20,COc1ccc(C(=O)Nc2ccc(N3CCC(C)CC3)cc2)cc1Br,9.95%
21,Cc1cc(OCC(O)CN)ccc1Cl (stereo not shown),2.55%
22,Cn1nnnc1SCc1nnc(-c2ccc(F)cc2)o1,-7.45%
23,O=C(c1ccccc1)c1ccc(-n2ccnc2)c([N+](=O)[O-])c1,10.1%

row,SMILES,"hERG current change (%, negative = inhibition) at 1uM"
1,COc1ccccc1NC(=O)c1ccc(-c2ccc(Br)cc2)o1,8.9%
2,CCN1CCN(Cc2c(C)[nH]c3ccc(OC)cc3c2=O)CC1,11.2%
3,COc1ccccc1N1C(=O)CC(N2CCN(c3ccc(Cl)cc3)CC2)C1=O (stereo not shown),5.49%
4,C=CCNC(=O)N1CCCC(C(=O)c2cccc(OC(C)C)c2)C1 (stereo not shown),17%
5,CCCCc1nc(NCCO)c(C#N)c2c1CCCC2,-8.05%
6,CCOc1ccc(NC(=O)[C@@H](NC(=O)c2ccco2)C(C)C)cc1,5.63%
7,c1ccc(-c2ncc(CN3CCN(c4ccccn4)CC3)[nH]2)cc1,5.09%
8,CCOC(=O)c1cc(-c2ccccc2)sc1NC(=O)c1ccc(OC)c(OC)c1,2.1%
9,COc1ccc(CCNC(=O)CCn2c(=O)c3ccccc3n(CC(=O)NCC3CCCO3)c2=O)cc1OC (stereo not shown),9.7%
10,O=C1CCCN1CCC(=O)N1CCCC(Nc2ccc(F)c(F)c2)C1 (stereo not shown),4.57%
11,CCOC(=O)NC(=O)/C(C#N)=N\Nc1cccc(OC)c1,13.7%
12,O=C(Nc1ccc(Cl)c(Cl)c1)C1CCCCC1,4.4%
13,Cc1cccc(C2(c3cccc(C)c3)OC(=O)c3ccccc32)c1,13.2%
14,Clc1cccc(Cl)c1CSc1nnc(-c2ccncc2)s1,15.8%
15,CCOc1cc(CNC2CCCC2)ccc1OCc1ccccc1Cl.Cl,7.65%
16,Cc1ccc(CNS(=O)(=O)c2ccccc2[N+](=O)[O-])cc1,0.107%
17,O=C(N/N=C/c1ccc(O)cc1)/C(=C/c1ccccc1)CCO,-4%
18,CCOc1ccccc1/C=C(\C#N)C(=O)NC1CC1,18.6%
19,Cc1ccc(F)cc1NC(=O)C1CCN(c2cnccn2)CC1,7.97%
20,CCN(CC)C(=O)/C(NC(=O)c1ccccc1)=C(/Sc1ncccn1)c1ccccc1,8.38%
21,O=C(c1ccccc1)N1N=C(c2ccccc2O)CC1c1ccccc1 (stereo not shown),8.14%
22,CN(C)CCCNC(=O)/C=C/c1ccc2c(c1)OCO2,1.68%
